# Reference: the supplement of paper PMC10126150
# Sequences with one replicate were seen in a single cluster, so their values are uncertain.
# Test system: ATP
# Experiment: switch fluorescence ratio, 500 uM ATP over buffer (Cy3 cluster intensity, sum of 5 cycles each) (fold (ratio)); higher = stronger signal-on switching upon ATP binding; sequences stand for … in TCGTCGGCAGCGTCAGATGTGTATAAGAGACAGTTTTTTTTTTTTTTTTTTTTTTTTT…TC
# Settings: aptamer strand: ATP DNA aptamer (quencher-CACCTGGGGGAGTATTGCGGAGGAAGG + anchor), 100 nM annealed; ATP concentration: 500 uM; one replicate
# In short: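 Per cluster, summed Cy3 intensity from the target cycles was divided by that from the buffer cycles to give the fluorescence ratio, then averaged per switch-domain sequence. Clusters outside 100-1000 RFU were excluded. The Cy3-labelled switching-strand clusters, on a modified Illumina MiSeq flow-cell, were annealed to 100 nM quencher-labelled ATP aptamer and imaged in selection buffer, then after 15 min with 500 uM ATP at 22 °C, for five cycles with NaOH stripping and re-annealing between them.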
# 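Note: ATP exposure 15 min at 22 °C before imaging.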
row,Sequence,switch fluorescence ratio
1,ATTACAGAG,1.02
2,ATTACCTCGG,1
3,ATTACCTGTG,1.02
4,ATTACTGACC,1.27
5,ATTACTGCGC,1.24
6,ATTACTTCTG,0.951
7,ATTAGACCC,1
8,ATTAGAGTT,0.957
9,ATTAGCCCTG,0.972
10,ATTAGCCTTT,1
11,ATTAGGTACT,1.02
12,ATTAGGTAGG,1
13,ATTAGGTCGC,1.01
14,ATTAGGTTAA,1.02
15,ATTAGTAGCG,0.982
16,ATTAGTGCAC,0.999
17,ATTATAGCTG,1
18,ATTATAGGTA,0.961
19,ATTATCATCG,1.01
20,ATTATCGCTA,1.04
21,ATTATCTCGA,1.02
22,ATTATCTCGG,1.01
23,ATTATGCACG,0.98
24,ATTATGGCC,1
25,ATTATGTTAG,0.962

row,Sequence,switch fluorescence ratio
1,ATTATTAACA,0.935
2,ATTATTCACT,1.01
3,ATTATTCCGT,1.01
4,ATTATTCGCG,0.962
5,ATTATTGATG,1.04
6,ATTATTGCAA,0.98
7,ATTATTGTTA,1
8,ATTATTTTTA,1.06
9,ATTCAAAGCT,1.09
10,ATTCAAGATA,0.98
11,ATTCAGTATG,0.969
12,ATTCATACAT,1.03
13,ATTCATATCT,1.05
14,ATTCATGCAT,1.02
15,ATTCATGTCC,1
16,ATTCATTCGA,1.04
17,ATTCATTGTT,0.972
18,ATTCCACTCC,1.19
19,ATTCCACTTT,1.02
20,ATTCCAGAA,0.987
21,ATTCCATCAG,1.02
22,ATTCCATTCA,1.03
23,ATTCCCGAGG,1.01
24,ATTCCGGGT,0.998
25,ATTCCGGTCC,1.06

row,Sequence,switch fluorescence ratio
1,ATTCCTATGG,0.984
2,ATTCCTCGGG,1.15
3,ATTCGATTGG,0.998
4,ATTCGCAGTA,1.03
5,ATTCGCCGAC,1.05
6,ATTCGCCTAC,2.02
7,ATTCGCGGTA,1.02
8,ATTCGGAGAC,1.36
9,ATTCGGATCC,3.37
10,ATTCGGCGGG,1
11,ATTCGGGGA,0.955
12,ATTCGGTGGC,1
13,ATTCGTACGC,1.25
14,ATTCGTCATC,1.05
15,ATTCTAATCA,1.01
16,ATTCTCACTT,0.971
17,ATTCTGATCT,1.02
18,ATTCTGCGGG,1.05
19,ATTCTGGGCA,1.04
20,ATTCTGTATC,0.954
21,ATTCTTACTG,1.05
22,ATTCTTCTGC,0.967
23,ATTCTTGGT,1
24,ATTCTTTTTC,1.02
25,ATTGAAACAA,1.04

row,Sequence,switch fluorescence ratio
1,ATTGAAGATC,0.957
2,ATTGAAGTTA,1.05
3,ATTGAATAGC,0.992
4,ATTGAATCAA,0.992
5,ATTGACCTC,1.05
6,ATTGACGCGC,1.01
7,ATTGACTTAG,1.03
8,ATTGAGACGG,0.998
9,ATTGAGGTCC,0.993
10,ATTGAGTTAA,1
11,ATTGCAGGGT,0.947
12,ATTGCAGTAC,5.08
13,ATTGCGAAAG,0.998
14,ATTGCGGATT,1.03
15,ATTGCGTTTC,1.08
16,ATTGGAAAAA,1.06
17,ATTGGAATCT,0.981
18,ATTGGACCCA,1.04
19,ATTGGATGGA,1.03
20,ATTGGGAAAT,1.03
21,ATTGGGGAAA,0.994
22,ATTGGGGCAG,0.979
23,ATTGGGGCTC,1.02
24,ATTGGGTGGG,0.97
25,ATTGGGTTCG,1.02
